In the supplement of paper PMC3334620:
Whole data set: some 33,000 sequences, median “E-score (-0.5 to 0.5)” near -0.053, cut for the highest 2% near 0.37. The list shows a part of the results.

target: Hap1 (UniProt P0CE41); assay: PBM E-score (8-mer binding enrichment) (E-score (-0.5 to 0.5)); higher = stronger / more preferred TF binding; most listed sequences are background and not binding sites; details: protein concentration: 200 nM; construct: GST-DNA-binding domain
How it was run: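 Using PURExpress in vitro transcription/translation, GST-tagged yeast transcription factors were made in full-length or DNA-binding-domain form. These were applied at about 100-200 nM to double-stranded universal all-10-mer Agilent arrays, and bound protein was detected with fluorescent anti-GST. Scans were normalised with masliner before the Universal PBM Analysis Suite assigned E-scores to ungapped eight-base words pooled with their reverse complements.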

Chain of UniProt P0CE41 (P0CE41 whole entry, the tested form may be a part): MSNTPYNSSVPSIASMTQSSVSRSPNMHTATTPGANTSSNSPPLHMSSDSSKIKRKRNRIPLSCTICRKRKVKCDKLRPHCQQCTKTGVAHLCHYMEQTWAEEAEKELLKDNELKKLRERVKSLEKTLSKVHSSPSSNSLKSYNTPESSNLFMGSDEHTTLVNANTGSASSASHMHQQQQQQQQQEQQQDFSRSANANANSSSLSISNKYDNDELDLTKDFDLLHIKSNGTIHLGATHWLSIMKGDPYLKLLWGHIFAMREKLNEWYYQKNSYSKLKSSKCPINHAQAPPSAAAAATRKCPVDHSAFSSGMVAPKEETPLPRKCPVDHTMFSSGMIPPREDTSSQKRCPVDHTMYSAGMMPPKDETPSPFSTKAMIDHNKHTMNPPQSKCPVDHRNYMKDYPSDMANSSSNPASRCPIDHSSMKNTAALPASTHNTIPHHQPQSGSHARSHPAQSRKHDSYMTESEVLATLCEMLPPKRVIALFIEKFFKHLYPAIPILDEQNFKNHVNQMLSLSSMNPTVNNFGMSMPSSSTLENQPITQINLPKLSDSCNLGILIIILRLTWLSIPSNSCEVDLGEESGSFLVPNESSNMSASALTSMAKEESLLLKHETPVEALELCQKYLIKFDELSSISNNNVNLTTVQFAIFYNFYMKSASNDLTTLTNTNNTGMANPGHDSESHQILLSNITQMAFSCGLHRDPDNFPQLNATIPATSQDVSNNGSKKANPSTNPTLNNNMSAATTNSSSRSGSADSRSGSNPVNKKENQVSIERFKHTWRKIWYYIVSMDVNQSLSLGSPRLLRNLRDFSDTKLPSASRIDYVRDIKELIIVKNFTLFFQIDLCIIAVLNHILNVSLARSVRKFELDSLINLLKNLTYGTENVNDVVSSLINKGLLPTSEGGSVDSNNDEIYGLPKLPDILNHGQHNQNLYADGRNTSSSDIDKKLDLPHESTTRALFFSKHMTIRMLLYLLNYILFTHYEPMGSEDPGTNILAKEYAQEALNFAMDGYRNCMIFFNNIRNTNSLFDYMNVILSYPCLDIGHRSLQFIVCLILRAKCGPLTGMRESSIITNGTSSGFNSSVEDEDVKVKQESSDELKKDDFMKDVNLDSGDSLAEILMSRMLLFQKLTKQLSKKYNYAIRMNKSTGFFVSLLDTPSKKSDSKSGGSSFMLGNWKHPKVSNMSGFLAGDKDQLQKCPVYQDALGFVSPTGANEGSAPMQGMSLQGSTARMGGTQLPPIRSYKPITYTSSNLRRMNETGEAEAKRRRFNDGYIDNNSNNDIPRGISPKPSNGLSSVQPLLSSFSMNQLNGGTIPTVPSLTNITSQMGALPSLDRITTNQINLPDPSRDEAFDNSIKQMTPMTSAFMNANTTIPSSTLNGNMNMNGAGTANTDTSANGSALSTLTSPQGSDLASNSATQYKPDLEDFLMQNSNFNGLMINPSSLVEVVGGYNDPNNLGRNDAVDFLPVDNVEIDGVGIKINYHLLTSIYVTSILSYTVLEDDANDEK

Going from CCAGAACC to ACAGCACA, the “PBM E-score” value rises from -0.137 to -0.0588.

Going from CGGCTTTA to GCCCCGCA, the “PBM E-score” value falls from 0.464 to 0.156.

First: ACTTAGCT
Second: ATCTGTAA
The “PBM E-score” value of the first is lower: -0.152 for the first, -0.0261 for the second.

First: AACTAACG
Second: ACCTGTCT
The “PBM E-score” value of the first is higher: 0.16 for the first, -0.139 for the second.

Going from GCCTAGGA to CTGCTTGC, the “PBM E-score” value rises from -0.261 to -0.0895.

Compared with CAATTGAG, ACACCCCG is higher in “PBM E-score” value: -0.026 for the first, 0.204 for the second.

First: ATGGGCAG
Second: CCCGAAGA
The “PBM E-score” value of the first is lower: -0.193 for the first, 0.284 for the second.

Compared with CCAAACGA, TACGGCCA is higher in “PBM E-score” value: -0.0424 for the first, 0.102 for the second.

First: GCGAGAAC
Second: GCATCCGA
The “PBM E-score” value of the first is lower: 0.0534 for the first, 0.291 for the second.

First: AGTCGACC
Second: CGGACTGA
The “PBM E-score” value of the first is lower: 0.0627 for the first, 0.317 for the second.

First: GTAACACA
Second: CGCCCCTA
The “PBM E-score” value of the first is lower: -0.12 for the first, 0.248 for the second.

First: AACAGTAG
Second: ACGACGTC
The “PBM E-score” value of the first is lower: -0.178 for the first, -0.0537 for the second.

Going from CAAGAGAA to CGTACTGA, the “PBM E-score” value rises from 0.0187 to 0.0686.

First: GGACTAAA
Second: CGATCGGC
The “PBM E-score” value of the first is lower: 0.195 for the first, 0.312 for the second.

First: AAAGTCGC
Second: AATCAGAG
The “PBM E-score” value of the first is higher: 0.136 for the first, -0.168 for the second.

Compared with ATCTATCG, ACGGAGCT is higher in “PBM E-score” value: 0.268 for the first, 0.313 for the second.

Compared with ATTTTCTG, AAGCCCCA is higher in “PBM E-score” value: -0.149 for the first, -0.133 for the second.

Going from ATAACTGC to AGCAAGTC, the “PBM E-score” value falls from -0.0204 to -0.153.

First: ACCGCACA
Second: ACCTATTC
The “PBM E-score” value of the first is lower: -0.00108 for the first, 0.0747 for the second.

First: AAAGGCTA
Second: GATTCTAA
The “PBM E-score” value of the first is lower: -0.238 for the first, -0.0294 for the second.

Going from AAATCGGA to GTCATTGA, the “PBM E-score” value falls from 0.344 to -0.13.

Compared with AAGTCCGG, AGTAAGAG is lower in “PBM E-score” value: 0.47 for the first, -0.23 for the second.

First: CACACCGC
Second: AACATAGG
The “PBM E-score” value of the first is higher: 0.0566 for the first, -0.125 for the second.

Going from TAAACTGA to GCGTCACA, the “PBM E-score” value falls from -0.0405 to -0.306.

Compared with ACGTCGGC, CCTCCAAA is lower in “PBM E-score” value: 0.267 for the first, -0.145 for the second.

First: ACGCTCGA
Second: AGTTGTAG
The “PBM E-score” value of the first is lower: -0.125 for the first, -0.0558 for the second.

First: GCTGCGCA
Second: ACAAGGGA
The “PBM E-score” value of the first is higher: 0.0488 for the first, -0.263 for the second.

Compared with GCTAAGTA, CCTTTGCA is lower in “PBM E-score” value: 0.0488 for the first, -0.207 for the second.

Going from AGCTGACA to AGCGGCCT, the “PBM E-score” value rises from 0.0168 to 0.0176.

Compared with CCGTATTC, CCGTTAGG is higher in “PBM E-score” value: 0.0767 for the first, 0.283 for the second.

Compared with AGGCCAAT, AGCTAACA is lower in “PBM E-score” value: -0.024 for the first, -0.238 for the second.

First: CAATAGAC
Second: ATCCCTAC
The “PBM E-score” value of the first is lower: -0.114 for the first, 0.008 for the second.

Compared with GAGAGGGA, ACATCCCA is higher in “PBM E-score” value: -0.235 for the first, -0.0122 for the second.

First: AACTAAGG
Second: CGACCCTC
The “PBM E-score” value of the first is lower: -0.193 for the first, -0.0597 for the second.

Compared with GGCTTTGA, AAGGCGTG is lower in “PBM E-score” value: 0.142 for the first, -0.242 for the second.

Compared with GACGCCCA, AGGCGAAC is higher in “PBM E-score” value: -0.0742 for the first, -0.023 for the second.

Compared with GAGAAGCA, CTAATAAA is higher in “PBM E-score” value: -0.12 for the first, 0.0213 for the second.

First: TGTGAACA
Second: GTGTTGGA
The “PBM E-score” value of the first is lower: -0.2 for the first, -0.11 for the second.

First: CACCTTAA
Second: CGGGTCAA
The “PBM E-score” value of the first is lower: -0.0226 for the first, 0.328 for the second.

First: CATCGTAC
Second: GTCGACAC
The “PBM E-score” value of the first is lower: -0.183 for the first, -0.156 for the second.

First: TACGTAAA
Second: AATTATGG
The “PBM E-score” value of the first is lower: -0.37 for the first, -0.0776 for the second.

Going from TGGTCAAA to CCAGCCCC, the “PBM E-score” value rises from -0.101 to -0.0384.

First: ATATTCAG
Second: CCCACCAG
The “PBM E-score” value of the first is higher: -0.0163 for the first, -0.128 for the second.

Going from ATGAGTCA to GTCAGCGA, the “PBM E-score” value rises from -0.264 to -0.103.

First: AATCAGGG
Second: ACGGGACG
The “PBM E-score” value of the first is lower: -0.295 for the first, 0.166 for the second.

Compared with GCACCCCA, ATGAATTG is lower in “PBM E-score” value: 0.0516 for the first, -0.0207 for the second.

Compared with ACATGCCC, AGGTCTAA is lower in “PBM E-score” value: 0.027 for the first, -0.0861 for the second.

Compared with ACCACGGT, CCCGTAGA is higher in “PBM E-score” value: -0.189 for the first, 0.0044 for the second.

Going from ACAATCGC to AAATATGT, the “PBM E-score” value rises from 0.166 to 0.181.

Going from CAAGTCCG to AAAATACT, the “PBM E-score” value falls from 0.39 to -0.00133.

Compared with CCAATGGG, TATAATAA is higher in “PBM E-score” value: -0.162 for the first, 0.0529 for the second.

First: AGACCTTA
Second: AGATTACG
The “PBM E-score” value of the first is lower: -0.154 for the first, 0.137 for the second.

First: TTTCCAAA
Second: CACGGCCG
The “PBM E-score” value of the first is lower: -0.109 for the first, 0.337 for the second.

Compared with GATTTTGA, AATTTATG is lower in “PBM E-score” value: 0.0507 for the first, 0.021 for the second.

AGGACGAC was tested, and the “PBM E-score” value was -0.143.
